Screen size: about 3,200 compounds; about 110 (3.4%) showed an effect of 50% or more. Some of the results follow.
Each molecule was assayed on T1, V. cholerae SAD30. Details: relative growth, OD600, LB; 25 µM; inhibitor.
T1 construct: SAD30
Design: species or system S. aureus MSSA476 (TSB) or V. cholerae SAD30 (LB); 384-well bacterial growth screen at 25 uM, OD600 relative to DMSO control

**Q.** Which “% of control remaining” value does the source give for Cc1c(Cl)cccc1NC(=O)C(C#N)=Cc1cccs1 [9-B05, N-(3-chloro-2-methylphenyl)-2-cyano-3-(thiophen-2-yl)prop-2-enamide] here?
**A.** 81.7811%

**Q.** For CC(Cl)C(=O)NCCc1ccnn1C (stereo not drawn) [7-I21, 2-chloro-N-[2-(1-methyl-1H-pyrazol-5-yl)ethyl]propanamide], which “% of control remaining” value is on record?
**A.** 82.6037%

**Q.** Cc1cc(C)c(C=C(C#N)C(=O)Nc2nccs2)cc1C [8-P21, 2-cyano-N-(1,3-thiazol-2-yl)-3-(2,4,5-trimethylphenyl)prop-2-enamide] was tested. Which “% of control remaining” value did it give?
**A.** 89.5309%

**Q.** With CC(c1cccc([N+](=O)[O-])c1)N(C)C(=O)CCl (stereo not drawn) [6-G06, 2-chloro-N-methyl-N-[1-(3-nitrophenyl)ethyl]acetamide] as the molecule, how does the “% of control remaining” value read?
**A.** 96.6158%

**Q.** With C=CC(=O)Nc1nc(-c2cccs2)cs1 [1-D08, N-[4-(thiophen-2-yl)-1,3-thiazol-2-yl]prop-2-enamide] as the molecule, how does the “% of control remaining” value read?
**A.** 74.5829%

**Q.** For CC(Cl)C(=O)NCCC1=CCCCC1 (stereo not drawn) [6-E11, 2-chloro-N-[2-(cyclohex-1-en-1-yl)ethyl]propanamide], which “% of control remaining” value is on record?
**A.** 84.7853%

**Q.** For N#CC(=Cc1ccc(F)cc1)C(=O)Nc1ccccc1C(F)(F)F [8-I18, 2-cyano-3-(4-fluorophenyl)-N-[2-(trifluoromethyl)phenyl]prop-2-enamide], which “% of control remaining” value is on record?
**A.** 71.8559%

**Q.** Which “% of control remaining” value does the source give for O=C(CCl)NCC1(c2ccc3c(c2)OCCO3)CCCC1 [4-I11, 2-chloro-N-{[1-(2,3-dihydro-1,4-benzodioxin-6-yl)cyclopentyl]methyl}acetamide] here?
**A.** 93.5087%

**Q.** With C=CC(=O)NCc1ccsc1S(N)(=O)=O [2-J15, N-[(2-sulfamoylthiophen-3-yl)methyl]prop-2-enamide] as the molecule, how does the “% of control remaining” value read?
**A.** 79.5426%

**Q.** CC(Cl)C(=O)N[C@H]1C[C@H](C)S(=O)(=O)c2sccc21 (stereo partly drawn) [6-B22, 2-chloro-N-[(2S,4S)-2-methyl-1,1-dioxo-2H,3H,4H-1lambda6-thieno[2,3-b]thiopyran-4-yl]propanamide] was tested. Which “% of control remaining” value did it give?
**A.** 103.289%

**Q.** How did the “% of control remaining” value turn out when Cc1ccc(C(=O)c2ccccc2)c(NC(=O)CCl)c1 [4-B19, N-(2-benzoyl-5-methylphenyl)-2-chloroacetamide] was run?
**A.** 97.1318%

**Q.** N#CC(=Cc1ccsc1)C(=O)Nc1cccc2ccccc12 [9-M09, 2-cyano-N-(naphthalen-1-yl)-3-(thiophen-3-yl)prop-2-enamide] was tested. Which “% of control remaining” value did it give?
**A.** 88.4432%

**Q.** C=CC(=O)Nc1ccccc1C1CC1(F)F (stereo not drawn) [1-M15, N-[2-(2,2-difluorocyclopropyl)phenyl]prop-2-enamide] was tested. Which “% of control remaining” value did it give?
**A.** 84.006%

**Q.** For COc1ccc(NC(=O)CCl)cc1S(=O)(=O)N(C)C [4-E15, 2-chloro-N-[3-(dimethylsulfamoyl)-4-methoxyphenyl]acetamide], which “% of control remaining” value is on record?
**A.** 96.4417%

**Q.** For N#CC(=Cc1ccc(OC(F)F)cc1)C(=O)Nc1nccs1 [8-F14, 2-cyano-3-[4-(difluoromethoxy)phenyl]-N-(1,3-thiazol-2-yl)prop-2-enamide], which “% of control remaining” value is on record?
**A.** 66.4174%

**Q.** For N#CC(=Cc1ccc(-c2ccc(Cl)cc2)o1)C(=O)NC1CC1 [9-K16, 3-[5-(4-chlorophenyl)furan-2-yl]-2-cyano-N-cyclopropylprop-2-enamide], which “% of control remaining” value is on record?
**A.** 84.3644%

**Q.** With CC(Cl)C(=O)Nc1ccccc1C(=O)c1ccccc1 (stereo not drawn) [6-G10, N-(2-benzoylphenyl)-2-chloropropanamide] as the molecule, how does the “% of control remaining” value read?
**A.** 77.505%

**Q.** Which “% of control remaining” value does the source give for CS(=O)(=O)N1CCC(N(CC(F)F)C(=O)CCl)CC1 [5-O12, 2-chloro-N-(2,2-difluoroethyl)-N-(1-methanesulfonylpiperidin-4-yl)acetamide] here?
**A.** 98.3503%

**Q.** C=CC(=O)N[C@H]1C[C@H](S(C)(=O)=O)C1 [3-D18, N-[(1r,3r)-3-methanesulfonylcyclobutyl]prop-2-enamide] was tested. Which “% of control remaining” value did it give?
**A.** 105.146%

**Q.** Which “% of control remaining” value does the source give for C=CC(=O)NCc1ccnc(N2CCN(c3ccc(F)cc3)CC2)c1 [1-M11, N-({2-[4-(4-fluorophenyl)piperazin-1-yl]pyridin-4-yl}methyl)prop-2-enamide] here?
**A.** 80.7175%

**Q.** C=CC(=O)N(C)Cc1ccnn1CC [1-F07, N-[(1-ethyl-1H-pyrazol-5-yl)methyl]-N-methylprop-2-enamide] was tested. Which “% of control remaining” value did it give?
**A.** 93.2735%

**Q.** C=CC(=O)N1CCC(C(=O)OCC)(S(C)(=O)=O)CC1 [3-H04, ethyl 4-methanesulfonyl-1-(prop-2-enoyl)piperidine-4-carboxylate] was tested. Which “% of control remaining” value did it give?
**A.** 101.264%

**Q.** Which “% of control remaining” value does the source give for Cc1cc(S(=O)(=O)N(C)C)cc(NC(=O)CCl)c1C [4-H15, 2-chloro-N-[5-(dimethylsulfamoyl)-2,3-dimethylphenyl]acetamide] here?
**A.** 102.825%

**Q.** Which “% of control remaining” value does the source give for CC(Cl)C(=O)Nc1ccc(Cl)cc1F (stereo not drawn) [4-C14, 2-chloro-N-(4-chloro-2-fluorophenyl)propanamide] here?
**A.** 93.1637%

**Q.** How did the “% of control remaining” value turn out when C=CC(=O)NC(Cn1cncn1)c1ccccc1 (stereo not drawn) [3-F17, N-[1-phenyl-2-(1H-1,2,4-triazol-1-yl)ethyl]prop-2-enamide] was run?
**A.** 90.6782%

**Q.** C=CC(=O)NCC(O)c1ncccc1OC (stereo not drawn) [2-J11, N-[2-hydroxy-2-(3-methoxypyridin-2-yl)ethyl]prop-2-enamide] was tested. Which “% of control remaining” value did it give?
**A.** 90.6591%

**Q.** With C=CC(=O)N1CCC(NC(=O)Nc2ccccc2OC)CC1 [1-K13, 3-(2-methoxyphenyl)-1-[1-(prop-2-enoyl)piperidin-4-yl]urea] as the molecule, how does the “% of control remaining” value read?
**A.** 84.1555%

**Q.** How did the “% of control remaining” value turn out when CC(=O)NC1Cc2ccccc2N(C(=O)CCl)C1 (stereo not drawn) [5-M20, N-[1-(2-chloroacetyl)-1,2,3,4-tetrahydroquinolin-3-yl]acetamide] was run?
**A.** 100.368%

**Q.** Which “% of control remaining” value does the source give for COc1ccc(C=C(C#N)C(=O)Nc2ccc(Cl)c(Cl)c2)cc1 [8-C03, 2-cyano-N-(3,4-dichlorophenyl)-3-(4-methoxyphenyl)prop-2-enamide] here?
**A.** 89.395%

**Q.** How did the “% of control remaining” value turn out when COc1ccc(C(=O)C(C)Cl)cc1 (stereo not drawn) [10-H22, 2-chloro-1-(4-methoxyphenyl)propan-1-one] was run?
**A.** 106.916%

Reference: publication PMC11995724, “Antibiotic target discovery by integrated phenotypic and activity-based profiling of electrophilic fragments” (Cell chemical biology, 2025)
